Experimental findings from paper PMC12136788 are described below.

This is one part of the list.

To fix the notation:
B1: chr11:87794696:87794697:-_ENSMUSG00000020483_ENSMUST00000020775|mus_hu|FALSE|FALSE (ssRNA)
RNA: GGGAGUUCUACAGUCCGACGAUCGCCUUUUAUUUUGUAUAGGGAAAGAAAGAGAAAAGGGAGAGGUGGGAGAGAUUUCCUAGUGCAAUACAACCAAAAAAUAUUUUUAAAGUCUUGAAAAAUAAACAUAAAGCAGCCUUCUUCCAACAGAGGAUUGAGCAUCA
B2: chr18:24791317:24791318:+_ENSMUSG00000024271_ENSMUST00000025120|mus_hu|motif|central (ssRNA)
RNA: GGGAGUUCUACAGUCCGACGAUCACUCCCAGUGAAGAAAUACUUGCUGUCAGGACUCCAAUCACAAGACCAAAUAAUUCGGCUGUGCACAGAAGUAAUUUUGUUGGUGAAGGCAAAAAGACUAAAAACUGGCUCGAACUCAGGCAACAGAGGAUUGAGCAUCA
B3: chr19:16406628:16406629:+_ENSMUSG00000024639_ENSMUST00000025541|mus_hu|FALSE|FALSE (ssRNA)
RNA: GGGAGUUCUACAGUCCGACGAUCGACACUUUGUAAGUCAAAGGGGUAUUCGAUGAUCCCUGUGGUGGGGACUCGAACUCUAAGCACAUCUUGUUGCGUAGGCAGGUAGGCAGGGUCAGCUACGCGGUCCAAGUCAUUAAGAUACAACAGAGGAUUGAGCAUCA
B4: 92970762_92970882_2270_CDS_ENSG00000004766_ENST00000305866|human|control|control (ssRNA)
RNA: GGGAGUUCUACAGUCCGACGAUCUUCCGUGGCUACCACUCUUUCUGCCAACCCAUACAGCGUAUCCCCAGAUGUCAAAACCACUAGGUGACUGAGGUGUGGACUUGGCACCUUCUCCUUUCUUUCUUCUGCUGCUGUGAGUGUCAACAGAGGAUUGAGCAUCA
B5: chr2:27535424:27535425:-_ENSG00000115204_ENST00000380044|hu_hu|motif|central (ssRNA)
RNA: GGGAGUUCUACAGUCCGACGAUCUUUGGCCCAGUUGUCCUGGGCUGACAGUCCAUUAAGUGCCCCUACCAGUGGGAGAAAGCAGCCGGGAAAACACGGGGCAAAGCCCCCCUGAUCCAACAACAUCUUCUUCAGUGCAUCCACCAACAGAGGAUUGAGCAUCA
B6: chr2:114342542:114342543:-_ENSMUSG00000057147_ENSMUST00000102542|mus_mus|FALSE|FALSE (ssRNA)
RNA: GGGAGUUCUACAGUCCGACGAUCCUGGGAUUAAAGGUGUACACCACUGCCUGGCUACGCAUGAUUCUUAAGACAGUAAAACUAUUGUGUUAUAGGAGUGUAAUGAUGCAUAUAUGUCUUUGAACAUUUGUUAAAUCCCGUGGACAACAGAGGAUUGAGCAUCA
B7: chr7:20150648:20150649:-_ENSMUSG00000044709_ENSMUST00000117222|mus_mus|FALSE|FALSE (ssRNA)
RNA: GGGAGUUCUACAGUCCGACGAUCCUUGAAAGAAUAGGAAAUUAUGUCACUACAUCGAAGCAAGGCCUCGGCCUGUACACCUAUGGGAGUCUGCAGUUGGGAAACGUAGAAGUUGGCCACAUCCAGGUCUGUGGCUCCAAACUGCAACAGAGGAUUGAGCAUCA
B8: chr7:56045873:56045874:+_ENSG00000146729_ENST00000322090|hu_hu|FALSE|FALSE (ssRNA)
RNA: GGGAGUUCUACAGUCCGACGAUCCUUUUUGGCUAGGAGAUUGGAGUGGGCAUCUUUUCUUGGAUCAACUUUCCGGACAAAUAAGGAUUUUAGCCAGCUGUCUUCUCGAGAUCUGUUGCUGGAAGAUGUCCAUGUCCGGAGCCUCAACAGAGGAUUGAGCAUCA
B9: chr13:33351070:33351071:+_ENSG00000083642_ENST00000315596|hu_mus|FALSE|FALSE (ssRNA)
RNA: GGGAGUUCUACAGUCCGACGAUCAUAACCCAGCCUUAGCUGUCCUCACAGGCAGAGGCCUCCCAUCACCACGGUGCCAACACUGUUGCAAAUGAAGAAAGUUAAACACUGAAGGAUUAAGACACAAUUCAAACAUCUUUUAAACAACAGAGGAUUGAGCAUCA
B10: chr16:94664741:94664742:+_ENSMUSG00000040785_ENSMUST00000117648|mus_hu|mus_mus_mus_hu_False|28_38 (ssRNA)
RNA: GGGAGUUCUACAGUCCGACGAUCUGGUACUGAUCUUGGUAGCUGAUAUUCAGGAGAAAGGCUGGCCAAGGGUGUAUAUAUGCUGGUGUACUGGGGCAGGCUAGGUACCAUGUUAAUGUAUGCUGGCGGUGUCUGGGUGAUAUCCAACAGAGGAUUGAGCAUCA
B11: chr7:56126341:56126342:+_ENSG00000146731_ENST00000540286|hu_mus|hu_hu_hu_mus_True|8_38 (ssRNA)
RNA: GGGAGUUCUACAGUCCGACGAUCCAUGUUUCUCCUCUUGGCUCUGCGCAGAGCUACGAUCCCUUCUUUCGCAAGGGCAUCUAAGGAAAAGGGGUCAAUUCCCUUUUGAUUAAUAACGACAAAUCCUUUAUCUGAAUCACCACACAACAGAGGAUUGAGCAUCA
B12: chr2:55462594:55462595:+_ENSG00000143947_ENST00000402285|hu_mus|FALSE|FALSE (ssRNA)
RNA: GGGAGUUCUACAGUCCGACGAUCUCCCAUGAAAACUCCAGCACCACAUUCAUCAGAAGGACACUCUCGACGAAGUCGGCUAAUUUUGCCAUUUUCAUCCACCUUAUAGUAUUUCAGCACAGCCAACUUAACCUUCUUCCUCUUCAACAGAGGAUUGAGCAUCA
B13: chr4:144460044:144460045:+_ENSG00000153147_ENST00000283131|hu_mus|hu_hu_hu_mus_False|1_8 (ssRNA)
RNA: GGGAGUUCUACAGUCCGACGAUCACGGUCCAUAGCCUGAAGAUCAACUUGCGGAUUCCAAUCUGAGUCAUAUAAAAUGACUACAUCAGCAGUUGCAAGAUUGAUGCCCAGACCACCAGCACGUGUGCUUAACAUGAAAACAAACAACAGAGGAUUGAGCAUCA
B14: chr1:109605286:109605287:-_ENSG00000197780_ENST00000461096|hu_hu|motif|central (ssRNA)
RNA: GGGAGUUCUACAGUCCGACGAUCAUAAACAAUAACAUUCAGUGAUCUACUUAAAUCCAAUUGUAAUCCUUACUUUAAACGGAGGGCAAUAAUAAUUUAAUACAUAGAGUAAAUACACACAAAACCUGUGUAUUCAGAACUACACAACAGAGGAUUGAGCAUCA
B15: chr8:35203877:35203878:-_ENSMUSG00000031513_ENSMUST00000033910|mus_mus|motif|central (ssRNA)
RNA: GGGAGUUCUACAGUCCGACGAUCGGAAGGGCACAUCCAAGCAUCAGGAACAUCAGCCCGAUCGCUCCUCCAAAGGACAAACGGAUUAAAGCUUUGAUGCCCGCCAUGGCGGUGACGUCGCUCCUGGCUCCACGACCCGGGCGGCAACAGAGGAUUGAGCAUCA
B16: 108849663_108849783_1118_CDS_ENSMUSG00000025651_ENSMUST00000026743|mouse|control|control (ssRNA)
RNA: GGGAGUUCUACAGUCCGACGAUCGACCAUGUCAUCGAUACUCAUGGCAUCACAGACAAAGUGUGCGCCCAGCAGCCCAGUAUCAGAGUAGGAGAUGUUGAAGGUCUGGAAACUCUGGCAAAGCUUGUUAGCCACAGCAACGGACAACAGAGGAUUGAGCAUCA
B17: chrX:11616105:11616106:-_ENSMUSG00000040363_ENSMUST00000043441|mus_mus|motif|central (ssRNA)
RNA: GGGAGUUCUACAGUCCGACGAUCGAUGUUAUAACACGGCAAGAGGGAGCUUUCAGCAAACUCAAACUCAAACAAAUCGCGGUAGGUAUCCUCUUCCUCAUCUGGGUCUUCUGGUCCUGGGGGAUUAGCCAAAACAUCGUACCCCAACAGAGGAUUGAGCAUCA
B18: 72554271_72554511_1640_CDS_ENSG00000137478_ENST00000311172|human|control|control (ssRNA)
RNA: GGGAGUUCUACAGUCCGACGAUCCAAAGCGGCCAGGGACUGCAGCAUGCUCAGGAGGCUGUUCGAGGUGGGAAACUGUAGGUACUUUUCUGGCACAUAACCCACUUGGCCAACUUUAUUUCGAGCCUUUACCCAGUCUUCCAUCAACAGAGGAUUGAGCAUCA
B19: chr11:86132931:86132932:-_ENSMUSG00000034297_ENSMUST00000043624|mus_mus|FALSE|FALSE (ssRNA)
RNA: GGGAGUUCUACAGUCCGACGAUCUCCAAAAGGUCCAACUGGAUCAUCCUUGAAUUUAUCAUUUGGAAGUUGAGGUGGUAAAAAUUCUACAUCUUUUUUCUUUGGGACUUUGUAAUACUUCCAGGCUACAUUAGCUUCAUCUUCCAACAGAGGAUUGAGCAUCA
B20: chr4:17845017:17845018:+_ENSG00000109805_ENST00000514176|hu_mus|hu_hu_hu_mus_False|1_88 (ssRNA)
RNA: GGGAGUUCUACAGUCCGACGAUCGCUCUCUUAACUUGUAUCUUCAUGAGAAAUUGGUGCAAGGUUAAGUUUACUUUUCUGUAGCGCAGCUGUUUUGGCUCGUCUGGGUAAUCUCAUCUUCAUUUCUGAUGGUGGUUUGGAACUCAACAGAGGAUUGAGCAUCA
B21: 95085810_95085930_128_5pUTR_ENSMUSG00000015711_ENSMUST00000015855|mouse|control|control (ssRNA)
RNA: GGGAGUUCUACAGUCCGACGAUCGCCUCCUGGGAAAUGUAGUCCAGCAGCUCGUGUUUGUCCUCAAGUGAGCAGUUUUCGGAGGGCUAUGACAUGCAAAUUGUGUAUGUGUCACAAUAACUCGCCUUUAUGGCAUCUGAACUUCAACAGAGGAUUGAGCAUCA
B22: chr14:21319651:21319652:-_ENSMUSG00000021816_ENSMUST00000161445|mus_mus|FALSE|FALSE (ssRNA)
RNA: GGGAGUUCUACAGUCCGACGAUCUAGACAUCUGAAGGGUUGAAGAGAACCAUUGCUUCUAGGCUGCAUUACUUAGUCAAAAACAUUUCCAGACAUUUUUAAUUUCCUUUGCAUUUAAACAUAAAGAUGAUACAAAGCCAGCAGCAACAGAGGAUUGAGCAUCA

The target in this assay is T1, UNK ZnF1-3 (human, UniProt Q9C0B0 31-174).
T1 sequence: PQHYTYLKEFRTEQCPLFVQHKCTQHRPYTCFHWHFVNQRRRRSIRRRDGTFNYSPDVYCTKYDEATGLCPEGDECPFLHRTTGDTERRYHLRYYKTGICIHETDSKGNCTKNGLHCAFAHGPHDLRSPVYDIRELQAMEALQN
The experiment in a line: nsRBNS (natural sequence RNA bind-n-seq); RBNS binding buffer (assumed for nsRBNS): 25 mM Tris pH 7.5, 150 mM KCl, 3 mM MgCl2, 0.01% Triton X-100, 500 ug/ml BSA, 20 U/ml SUPERase-In, 4 C; UNK is unkempt and MSI1 is Musashi-1; names of the RNAs are library labels; protein concentration not given here; high values mean tight binding.
Molecule B1 gave a binding signal of 3.04 enrichment R.
In turn, B2 gave a binding signal of 2.01 enrichment R.
For B3 the value was 1 enrichment R; for B4, 0.655 enrichment R; for B5, 1.14 enrichment R.
The result for B6 reads 1.18 enrichment R; that for B7, 0.807 enrichment R.
Regarding B8, the binding signal turned out to be 0.343 enrichment R.
The result for B9 reads 1.18 enrichment R.
For B10 the value was 1.22 enrichment R; for B11, 0.982 enrichment R.
The result for B12 reads 0.949 enrichment R.
For the molecule B13, the binding signal is 0.863 enrichment R.
As for B14, the binding signal worked out at 1.21 enrichment R.
For B15 the value was 0.99 enrichment R; for B16, 1.02 enrichment R; for B17, 1.34 enrichment R.
The molecule B18 returned a binding signal of 1.23 enrichment R.
The result for B19 reads 0.797 enrichment R.
The result for B20 reads 0.492 enrichment R; that for B21, 0.775 enrichment R; that for B22, 1.21 enrichment R.
